For five molecules, Kd results are on record in patent US20170304361A1 (CASE WESTERN RESERVE UNIVERSITY, published 2017).

To fix the notation:
B1: GluA8 derivative of AspB10, 2F-PheB24, LysB28, ProB29-human insulin (T-0338) (ligand)
chain 1: not shown
chain 2: FVNQHLCGSDLVEALYLVCGERGFFYTKPT
modifications: ortho-fluoro-Phenylalanine (2F-Phe) at B24
B2: GluA8, GlyA21 derivative of AspB10, 2F-PheB24, GluB29-human insulin (T-0348) (ligand)
chain 1: not shown
chain 2: not shown
modifications: ortho-fluoro-Phenylalanine (2F-Phe) at B24
B3: GlyA21 derivative of AspB10, 2F-PheB24, LysB28, ProB29-human insulin (T-0346) (ligand)
chain 1: not shown
chain 2: B1 chain 2
modifications: ortho-fluoro-Phenylalanine (2F-Phe) at B24
B4: GluA8 derivative of AspB10, ortho-fluoro-PheB24, GluB29-insulin (T-0339) (ligand)
chain 1: not shown
chain 2: not shown
modifications: ortho-fluoro-Phenylalanine (2F-Phe) at B24
B5: GlyA21 derivative of AspB10, ortho-fluoro-PheB24, GluB29-insulin (T-0347) (ligand)
chain 1: not shown
chain 2: not shown
modifications: ortho-fluoro-Phenylalanine (2F-Phe) at B24

This experiment concerns the target T1, Type 1 IGF Receptor (IGF-1R).
T1 construct: also called Type 1 insulin-like growth factor receptor; Type 1 IGF-I receptor
Kind of experiment: competitive displacement of radiolabelled tracer; Kd fitted with a heterologous competition model. On the procedure: The protocol for assay of receptor-binding activities was as follows. Microtiter strip plates (Nunc Maxisorb) were incubated overnight at 4° C. with AU5 IgG (100 μl/well of 40 mg/ml in phosphate-buffered saline). Binding data were analyzed by a two-site sequential model.
As to B1, the Kd (as a rule, the concentration at which binding is half-saturated) is 7 nM.

With B2, the affinity, expressed as Kd, was 24 nM.

The molecule B3 yielded a Kd of 10 nM.

On to B4, for which the Kd worked out at 20 nM. This Kd lies about 2-fold higher than the previous one.

Molecule B5 came in with a Kd of 27 nM.
